Here are results for 56 compounds from article PMC4336329 (PLoS ONE, 2015).

In all, about 310,000 compounds went through this assay and about 2,200 (0.71%) showed an effect of 50% or more. The effect is printed as a negative number. This is one part of the list.

The target of this test is human ether-à-go-go-related gene (hERG) potassium channel (human, UniProt Q12809). The test can be described thus: primary screen, population patch clamp on CHO cells stably expressing hERG.
Sequence of human ether-à-go-go-related gene (hERG) potassium channel (Q12809 whole entry, looked up): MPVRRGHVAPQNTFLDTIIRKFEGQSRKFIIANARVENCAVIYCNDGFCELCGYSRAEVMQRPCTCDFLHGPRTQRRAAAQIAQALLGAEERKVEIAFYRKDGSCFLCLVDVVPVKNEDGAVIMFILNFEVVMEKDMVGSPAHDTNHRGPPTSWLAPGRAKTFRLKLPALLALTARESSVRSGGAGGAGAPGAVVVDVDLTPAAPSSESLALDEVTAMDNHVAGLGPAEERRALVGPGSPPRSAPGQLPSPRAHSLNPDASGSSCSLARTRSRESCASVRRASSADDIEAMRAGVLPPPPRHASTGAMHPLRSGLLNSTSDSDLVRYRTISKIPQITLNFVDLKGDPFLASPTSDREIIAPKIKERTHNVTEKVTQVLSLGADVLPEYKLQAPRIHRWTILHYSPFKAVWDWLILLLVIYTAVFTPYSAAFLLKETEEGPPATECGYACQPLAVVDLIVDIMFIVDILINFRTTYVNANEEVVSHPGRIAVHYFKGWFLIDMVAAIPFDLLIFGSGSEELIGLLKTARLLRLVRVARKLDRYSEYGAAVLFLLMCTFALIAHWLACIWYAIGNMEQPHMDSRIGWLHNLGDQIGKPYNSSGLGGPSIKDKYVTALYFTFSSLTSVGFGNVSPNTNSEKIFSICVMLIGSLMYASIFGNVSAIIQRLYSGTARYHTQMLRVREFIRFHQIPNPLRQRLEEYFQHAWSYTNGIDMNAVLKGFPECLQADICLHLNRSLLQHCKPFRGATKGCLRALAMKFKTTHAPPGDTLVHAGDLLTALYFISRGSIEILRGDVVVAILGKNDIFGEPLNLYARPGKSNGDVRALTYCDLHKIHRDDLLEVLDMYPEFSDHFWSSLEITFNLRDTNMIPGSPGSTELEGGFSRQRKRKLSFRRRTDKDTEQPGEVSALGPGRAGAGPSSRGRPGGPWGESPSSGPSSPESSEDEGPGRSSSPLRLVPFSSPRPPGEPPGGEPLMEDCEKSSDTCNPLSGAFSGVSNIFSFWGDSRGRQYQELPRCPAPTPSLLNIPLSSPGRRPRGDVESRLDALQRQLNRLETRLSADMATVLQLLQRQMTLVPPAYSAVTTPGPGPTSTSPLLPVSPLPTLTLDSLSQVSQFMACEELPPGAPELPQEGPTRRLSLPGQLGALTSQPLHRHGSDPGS
For `O=C(c1ccccc1F)N1CCN(CC2CC3C=CC2C3)CC1` (centres unmarked), the “hERG current change (%, negative = inhibition) at 1uM” value is -13%.
`CCN1CCN(Cc2ccc(OCc3ccccc3)cc2)CC1`: the “hERG current change (%, negative = inhibition) at 1uM” value is listed as 6.55%.
Turning to `Cc1ccc(S(=O)(=O)N2CCOCC2)cc1NC(=O)COC(=O)c1cc(=O)[nH]c2ccccc12`, the “hERG current change (%, negative = inhibition) at 1uM” value was 1.29%.
To `Cc1cc(C)c(-c2csc(NC(=O)C3=COCCO3)n2)cc1C` belongs 20.9%.
The result for `CC1=C(C(=O)O)N2C(=O)[C@@H](NC(=O)CCCC(=O)O)[C@H]2SC1` reads 10.1%; that for `Cc1cc(Cl)ccc1Nc1ncccc1C(N)=O`, 11.9%; that for `Cc1ccc(-c2nn(-c3ccccc3)cc2/C=C/C(=O)OCC(=O)NC2CC2)o1`, 7.49%.
Turning to `N#Cc1ccncc1S(=O)c1ccc(Cl)cc1` (centres unmarked), the “hERG current change (%, negative = inhibition) at 1uM” value is recorded as 13%.
To `CCOC(=O)N1CCC(NC(=O)CCN2C(=O)C3C4C=CC(C4)C3C2=O)CC1` (centres unmarked) belongs 5.49%; to `[O-]/[N+](=C/c1cccnc1)c1ccc(Br)cc1`, 9.2%.
To `O=C(Cc1ccccc1)NCC(=O)N1CCCCC1` belongs 19.6%.
To `CCOCC(=O)Nc1ccc([N+](=O)[O-])cc1Cl` belongs 14.3%; to `CN(C)CCNc1oc(COc2ccc(-c3ccccc3)cc2)nc1C#N`, 2.52%; to `COC(=O)c1ccc(C(=O)N2CCCC(CNC(=O)c3ccc(F)cc3)C2)cc1` (centres unmarked), 8.52%.
As for `Cc1ccccc1NC(=O)NCCCN1CCN(C)CC1`, the “hERG current change (%, negative = inhibition) at 1uM” value is 14.9%.
In the case of `COc1ccc(C2C3=C(CC(C)(C)CC3=O)Oc3ncn4nc(-c5cccnc5)nc4c32)cc1` (centres unmarked), the “hERG current change (%, negative = inhibition) at 1uM” value is given as -4.23%.
The result for `C=CCn1c(OCc2ccccc2)n[nH]c1=S` reads 15.9%; that for `Cc1cc(/C=C(/C#N)c2cccc(F)c2)c(C)n1-c1cccnc1`, 8.11%; that for `Cc1cccc(-c2cccc(NC(=O)C3CCCN(C(=O)c4cccnc4)C3)c2)c1` (centres unmarked), -6.49%.
In the case of `C=CCNCCOc1ccc(C)cc1[N+](=O)[O-].O=C(O)C(=O)O`, the “hERG current change (%, negative = inhibition) at 1uM” value is -5.64%.
To `COc1cccc(CNC(=O)c2nnn(CC(=O)Nc3ccc(Br)cc3)c2N)c1` belongs 17%.
For the compound `COc1ccc(CCNC(=O)C2CCC(=O)N2S(=O)(=O)c2ccc(C)cc2)cc1` (centres unmarked), the “hERG current change (%, negative = inhibition) at 1uM” value was determined as 15.8%.
Turning to `CCOC(=O)C1CCN(C(=O)c2cc3ccccc3oc2=O)CC1`, the “hERG current change (%, negative = inhibition) at 1uM” value worked out at 9.75%.
As to `CC(C)n1c(SCC(=O)Nc2nc3ccccc3s2)nc2c1c(=O)n(C)c(=O)n2C`, the “hERG current change (%, negative = inhibition) at 1uM” value was determined as 17.3%.
Take `Cc1ccccc1OCC(=O)NCCCNC(=O)c1cccnc1`: the “hERG current change (%, negative = inhibition) at 1uM” value is 8.36%.
The result for `CCC1(C)Cc2ccccc2-c2nc(NN)[nH]c(=O)c21` (centres unmarked) reads 8.94%.
Take `COc1cc(/C=C/C(=O)OCC(=O)NC(=O)NC(C)C)ccc1O`: the “hERG current change (%, negative = inhibition) at 1uM” value was 8.68%.
To `CCOC(=O)c1c(NC2=NS(=O)(=O)c3ccccc32)sc2c1CCC(C)C2` (centres unmarked) belongs 17.9%; to `CCc1ccc(NC(=O)C(=O)N/N=C(\C)CC(=O)Nc2ccc(OC)cc2)cc1`, 8.29%; to `Cc1cccc(/C=N\NC(=O)c2ccc(Cl)cc2)c1O`, 25.8%.
Take `O=C(Cn1cnc2sc3c(c2c1=O)CCCC3)NCCCC(=O)N1CCC2(CC1)OCCO2`: the “hERG current change (%, negative = inhibition) at 1uM” value is recorded as -4.84%.
The result for `CN(CC(=O)Nc1cccc2c1CCCC2)S(=O)(=O)c1ccc(Cl)cc1` reads -0.147%.
As for `O=C(CSc1nc2ccccc2c(=O)[nH]1)N1CCOCC1`, the “hERG current change (%, negative = inhibition) at 1uM” value is given as 6.99%.
On to `CN1CCN(c2ccc(NC(=O)c3ccc4c(c3)OCO4)cc2)CC1`, for which the “hERG current change (%, negative = inhibition) at 1uM” value is listed as -0.282%.
For `CC(C)COC(=O)Nc1ccc(C(=O)O)cc1`, the “hERG current change (%, negative = inhibition) at 1uM” value amounted to 8.12%.
The result for `CCN(CC)S(=O)(=O)c1ccc(C(=O)Nc2ccc(C(F)(F)F)n(C)c2=O)cc1` reads 15%; that for `COc1ccc(NS(=O)(=O)c2cc(NC(=O)c3cccs3)ccc2N2CCCC2)cc1`, 1.54%.
The result for `Cc1ccc(NC(=O)C(NC2CCCC2)c2ccccc2)cc1Cl` (centres unmarked) reads 14.6%.
Consider `Cc1ccccc1C(=O)N1CCC(C(=O)OCc2nc(N)nc(Nc3ccccc3)n2)CC1`, for which the “hERG current change (%, negative = inhibition) at 1uM” value is recorded as -6.96%.
For the compound `Cc1ccc(Cn2ccc(-c3cnc(-c4ccccc4)s3)n2)cc1`, the “hERG current change (%, negative = inhibition) at 1uM” value is reported as 16.4%.
Regarding `O=[N+]([O-])c1nn(-c2ccc3c(c2)OCCO3)n(O)c1=NCc1ccc(F)cc1`, the “hERG current change (%, negative = inhibition) at 1uM” value was 10.7%.
Turning to `O=C(O)c1ccc(NS(=O)(=O)/C=C/c2ccccc2)cc1`, the “hERG current change (%, negative = inhibition) at 1uM” value worked out at 11.9%.
The result for `CCc1ccc2[nH]c3nc(SCc4nnc(-c5ccc(C)cc5)o4)nnc3c2c1` reads 12.7%; that for `O=C(COC(=O)c1cncc(Br)c1)Nc1nc(-c2ccc(F)cc2)cs1`, 7.12%.
For `CC1=C(C#N)C(C(F)(F)F)(C(F)(F)F)N=C(c2ccco2)N1`, the “hERG current change (%, negative = inhibition) at 1uM” value is 9.8%.
The result for `COc1ccc(-c2nc(-c3ccccc3)nc(Cl)c2C#N)cc1` reads 5.24%.
For `CC1(C)CC(=O)C2=C(C1)Oc1ncn(Cc3ccco3)c(=N)c1C2c1ccccc1` (centres unmarked), the “hERG current change (%, negative = inhibition) at 1uM” value is -2.87%.
The result for `CC1=CC(=O)C2=C(C)C[C@H](O)[C@@H]3[C@H](OC(=O)[C@H]3C)[C@@H]12.O` reads 14.5%; that for `Nc1ccccc1SCc1cn2ccccc2n1`, -13.4%; that for `Cc1ccc(NNC(=O)c2cc(C)on2)c(C)c1`, 7.41%.
For `CC(=O)Nc1cccc(C(=O)Nc2ccc(S(=O)(=O)NC3=NCCCCC3)cc2)c1`, the “hERG current change (%, negative = inhibition) at 1uM” value is reported as 25.3%.
Turning to `O=C(NCC1CCCO1)c1cccc(S(=O)(=O)Nc2ccc(SC(F)F)cc2)c1` (centres unmarked), the “hERG current change (%, negative = inhibition) at 1uM” value was 3.27%.
Turning to `CC(C)(C)n1ncc2c(=O)n(Cc3ccc(Cl)cc3)cnc21`, the “hERG current change (%, negative = inhibition) at 1uM” value is 19.1%.
To `COc1ccc(CN=C2NC(=O)CC(C(=O)Nc3ccc(F)cc3)S2)cc1` (centres unmarked) belongs -3.12%; to `C[C@@H](NC(=O)c1nc[nH]c1C(=O)N1CCc2ccccc2C1)c1ccccc1`, 6.7%.
Regarding `O=C(CC1C(=O)NCCN1Cc1ccccc1)NCCN1CCCCC1=O` (centres unmarked), the “hERG current change (%, negative = inhibition) at 1uM” value was determined as 15.3%.
